Data from the RNAGym collection of RNA variant scans (doi:10.7554/elife.90254).
Read counts are not given, so values of variants with three or more changes are uncertain.

B1: LINE1-mini (parent)
chain: GGCAGAGCUCAACACAGCGUGGCAAAGUGGCUGUGGCUAGACUGCC

Variants of: B1
Test: self-cleavage, relative activity (ratio to wild type); higher = more cleavage; in vitro, sequencing; the parent is a self-cleaving ribozyme

**Q.** With GGCAGAGCUCAACACAGCGUGGCAAAGCGGCUCUGGCUAGACUUCC as the variant, how does the self-cleavage read?
**A.** The self-cleavage was 0.03.

**Q.** For GGAAGUGGUAAACACAGCGUGGCAAAGUGGCUGUGGCCAGACUGCC, which self-cleavage is on record?
**A.** The self-cleavage was 0.01.

**Q.** Which self-cleavage does the source give for GGCAGACCUCAACACAGCGUGGAAUAGUGGCUUGGGAUAGCCUGCC here?
**A.** Its self-cleavage is 0.1.

**Q.** For GGCAGAACACAACACAGCGUGGCAACGUGGCUGUGGCUAUACUGCC, which self-cleavage is on record?
**A.** Its self-cleavage is 0.04.

**Q.** With GGCAGAGCUCAACACAGCGUGGCAAAGUGGUUGUGACUAGAAUGCC as the variant, how does the self-cleavage read?
**A.** The self-cleavage was 0.12.

**Q.** For GGCAGAGCUCAACACAACGUGGCACAGUCGCUAUUGCUAGACUGCC, which self-cleavage is on record?
**A.** The self-cleavage was 0.01.

**Q.** For GGCAGAGCUCAACAUAUCGUGCCAGAAUGGCUGUGGCUAGAAUGCC, which self-cleavage is on record?
**A.** The self-cleavage was 0.03.

**Q.** Which self-cleavage does the source give for GGCAGAGUUCAACACACCGGGGCAGAGUGGCUAUGGCUAGACUGCC here?
**A.** The self-cleavage was 0.11.

**Q.** Which self-cleavage does the source give for GGCAGAGUUCAACCCAGCGUGGGAAAGUGGCUGUGGCUAGACUGCC here?
**A.** Its self-cleavage is 0.18.

**Q.** With GGCAGAGCUCAACACAGUGUGGCAAAGUGGUAGCGGCUAGACUGCC as the variant, how does the self-cleavage read?
**A.** The self-cleavage was 0.05.

**Q.** Which self-cleavage does the source give for GGCUGAGGUGAACACAGCGUGGCAAAUUUGCUGUGGCUAAACUGCC here?
**A.** The self-cleavage was 0.01.

**Q.** With GGCAGAGCUCAACACAGUGGGGCAAAGUGUCUAUGGCUAGACUACC as the variant, how does the self-cleavage read?
**A.** The self-cleavage was 0.

**Q.** Which self-cleavage does the source give for GGCAGAGCUCAUCACAGCGUGGCAAAGUAGCUGUGGCUAGACCGCC here?
**A.** Its self-cleavage is 0.05.

**Q.** With GGUAGAGCUCAACUGAGCGUGGCAAAGUGGCUGUGGCUAGACUGGC as the variant, how does the self-cleavage read?
**A.** The self-cleavage was 0.04.

**Q.** For GGCAGAGCUCAUCACUGCGAGGCAAAACGGCUGUGGCCGGACUCCC, which self-cleavage is on record?
**A.** Its self-cleavage is 0.03.

**Q.** With GAAACAGCUUCACACAGCGUGGUAAAGUGGCUGUGACUAGACUGCC as the variant, how does the self-cleavage read?
**A.** Its self-cleavage is 0.06.

**Q.** For GGCAGAGCUCAAUACAGCGUGGCAAAGUGGCUGGGGCCAUACUGCC, which self-cleavage is on record?
**A.** Its self-cleavage is 0.02.

**Q.** For GGCAGAGCUUAACACAGCGUGCCAAACUGGCUGUGGCUAGAGUGCC, which self-cleavage is on record?
**A.** The self-cleavage was 0.01.

**Q.** For GGCAGACCAUAACACAGCGUGGCAAAGUGGCUCUGGCUAGACUGCC, which self-cleavage is on record?
**A.** The self-cleavage was 0.04.

**Q.** With GGCACAGCUCAACACAGCGUGGCAACGUGGCUGAGGCUAGACUGCC as the variant, how does the self-cleavage read?
**A.** The self-cleavage was 0.08.

**Q.** With GGCAGAGCUCAACAUAGCGCGGCAAAGUGGCUGUGGCUAGACUGCG as the variant, how does the self-cleavage read?
**A.** Its self-cleavage is 0.71.

**Q.** With GGCAGAGCUCAACAUAGCGUGGCAACGUGGCUGUGGCUAGACUGGC as the variant, how does the self-cleavage read?
**A.** The self-cleavage was 0.14.

**Q.** For GGCAGUGCACAACACAGCGUGGCCAAGUGUCUGUGGCUAGACUGCU, which self-cleavage is on record?
**A.** The self-cleavage was 0.13.

**Q.** With GCCAGAGUUCAACACAGCGUGGCUAAGUGGCCGUAGCUAGACUGCC as the variant, how does the self-cleavage read?
**A.** Its self-cleavage is 0.22.

**Q.** With GGCAGAGCUAAACACAGCGUAGCAAAGUGGCUGUGGCUAGACUCCC as the variant, how does the self-cleavage read?
**A.** The self-cleavage was 0.06.

**Q.** With GGCAGAGCUGAACACAGCGUGGUAAAGUGGCUGAGGCUAGACUGCG as the variant, how does the self-cleavage read?
**A.** Its self-cleavage is 0.02.

**Q.** Which self-cleavage does the source give for GGCACAGCUCAACACACCGUGGCAAAGUGUCUGUGGCUAUACUGCC here?
**A.** Its self-cleavage is 0.06.

**Q.** Which self-cleavage does the source give for GGCAGAGCUCCACACAGCGAGGCAAAGUGGCUGUGGCUAGACUGUC here?
**A.** Its self-cleavage is 0.01.

**Q.** For GGCAGAGCUGAACACAGCAUGGCAAAUUGGCUGUGGCUGGACUGCC, which self-cleavage is on record?
**A.** The self-cleavage was 0.01.

**Q.** With GGCAGAGCUCAACACAGCGUUGCAAAGAGGCUGUGGCUGAACUGCC as the variant, how does the self-cleavage read?
**A.** Its self-cleavage is 0.08.

**Q.** Which self-cleavage does the source give for GUCAGAGCUCAACACAGCGCGGUAUAGUGGCUGUGGUUAGACUGCC here?
**A.** Its self-cleavage is 0.01.

**Q.** For AGCAGAGGUCAACACAGCGUGGCAAAGUGGCUCUGGAUAGAUUGCC, which self-cleavage is on record?
**A.** Its self-cleavage is 0.07.

**Q.** Which self-cleavage does the source give for GGCAGAGCUAAACACAACGUGGCUACGUGGCUGUGGCUAGACUGCC here?
**A.** Its self-cleavage is 0.03.

**Q.** With GUCAGAGCUCAGCGCAGCGUGGCAAAGUGGCUGUGGCUAGACAGCC as the variant, how does the self-cleavage read?
**A.** The self-cleavage was 0.03.

**Q.** Which self-cleavage does the source give for GGCAGAGCUGAACAGAGCCUGGCUAAGUGCCUGUGCCGAAACUGCC here?
**A.** Its self-cleavage is 0.

**Q.** Which self-cleavage does the source give for GGCAGAGCUCAACAGUGCGUGGCAAAGUGGCUGAGGCUAGACUGCC here?
**A.** The self-cleavage was 0.03.

**Q.** With GGCAGAUCUCAAAACAGCGUGGCAAAGUUGCUGUGGCUAGACUGCC as the variant, how does the self-cleavage read?
**A.** Its self-cleavage is 0.11.

**Q.** Which self-cleavage does the source give for GGUAGAGCUCAACACAGUGUGGCAAAGUGGCUGUGGAGACACUGCC here?
**A.** Its self-cleavage is 0.03.

**Q.** For GGCAGUGCUCAACACAGCGUGGCCAGGUGGCUGUGGAGAGACUGAC, which self-cleavage is on record?
**A.** Its self-cleavage is 0.

**Q.** With GGCAGAGCUCAACACAGCGUGGCGAAGUGGCAGAGGCUAGACUGCC as the variant, how does the self-cleavage read?
**A.** Its self-cleavage is 0.04.

**Q.** With GGCAGAGCUCAACACACCGUGGCAAAGUGGCUAUGGCUUGACUGCC as the variant, how does the self-cleavage read?
**A.** Its self-cleavage is 0.1.

**Q.** With GGCAGAGCUCAAUACAGCGUGGCAAAAUGGCUGUGGGUAGACUGCG as the variant, how does the self-cleavage read?
**A.** The self-cleavage was 0.02.

**Q.** Which self-cleavage does the source give for GGCAGAACUCAACUCAGCGUGGCAAAGUGGCUGUGGCUAACCUGCG here?
**A.** The self-cleavage was 0.69.

**Q.** For GCCAGAGCUCAACACAACGUGGCAAAGUGGCUGUGGCUACACAGCC, which self-cleavage is on record?
**A.** The self-cleavage was 0.05.

**Q.** For GGCAAAGCUCAACAUAGCGUGGCUAACUCGCUGUGGCUAGACUGCC, which self-cleavage is on record?
**A.** The self-cleavage was 0.02.

**Q.** For GGCAGAGCUCAACACAGCUUGGCAAAGUGGCUGUGUCCAGACUGCC, which self-cleavage is on record?
**A.** Its self-cleavage is 0.

**Q.** For GGCGGAGCUCAACACAGCGUGGCAUAGUGGAUGUGGCUAGACUGCC, which self-cleavage is on record?
**A.** The self-cleavage was 0.09.

**Q.** With GGCAGAGCUCAACACAGCGUUGCAAAGUGUCAGAGGCUAGACUGCC as the variant, how does the self-cleavage read?
**A.** The self-cleavage was 0.04.

**Q.** With GGCAGAGUUCAAGCCAGCGUGGCAAAAUGCCUGUGGCUAGACUGCC as the variant, how does the self-cleavage read?
**A.** The self-cleavage was 0.03.

**Q.** With GGCUGCGCUCAACACAGCGUAGCAAAGUGGCUGUGGCUAAACUGAC as the variant, how does the self-cleavage read?
**A.** The self-cleavage was 0.03.

**Q.** For GGCAGAGCUCACCUCAGCGUGGAAAAGUGGCUGUGGCGAGACUGCC, which self-cleavage is on record?
**A.** The self-cleavage was 0.01.

**Q.** For GGCAGAGCUCAACACAGCCUGGGAAACUGGCUGUGCCUAGACUGCC, which self-cleavage is on record?
**A.** The self-cleavage was 0.04.

**Q.** With GGUAGAGCUCAACAAAGCGUGGCAAAGUGGCUGUGGCUAGACUGCA as the variant, how does the self-cleavage read?
**A.** Its self-cleavage is 0.09.

**Q.** For GGCAGAGUUCAACCCAGCGUGGCAGAGAGGCGGUGAAUAGAAUGCC, which self-cleavage is on record?
**A.** The self-cleavage was 0.17.

**Q.** With AGCAGAGCUCAACACAGCGUGGCGAUGUGGCUGUGGCUAGAAUGCC as the variant, how does the self-cleavage read?
**A.** The self-cleavage was 0.02.

**Q.** With GGCAGAGAUUAACAGAGCGUGGCAAAGUGGCUGUGACUAGACUCCC as the variant, how does the self-cleavage read?
**A.** The self-cleavage was 0.1.
